# Laboratory results published in the RNAGym collection of RNA variant scans (doi:10.7554/elife.90254).
# Read counts are not given, so values of variants with three or more changes are uncertain.
# B1: LINE1-mini (parent)
# chain: GGCAGAGCUCAACACAGCGUGGCAAAGUGGCUGUGGCUAGACUGCC
# Variants of: B1
# Test: self-cleavage, relative activity (ratio to wild type); higher = more cleavage; in vitro, sequencing; the parent is a self-cleaving ribozyme
row,Variant,self-cleavage
1,GGCAGAGCUCAACACAGCGUGGCAAAGUGGCUGAGGCUAGAGUGCA,0.03
2,GGCAGGGCUCAACACAUCGUGGCAAAGUGGCUGGGGCUCGACUGCC,0
3,GGUAGAGCUCAACACGGCGUGGCAAAGUGACUGUGGCAAGUCUGCC,0.01
4,GGCAGAGCUCAAUACACCGUGGCAAAGUGGCUGUGGCUUGACUGCC,0.12
5,GGAAGAGUUCAAAUCAGCGUGGCAAAGUGGCUGUGGCUAGACUGCC,0.63
6,GGCAGAGCUCAACACAGCGUGGCAAAGUGGGUGUGGUUAGACUGCU,0.05
7,GGCAGAGCUCAACACAGAGUGGCAAAUUGGCGGUGGCUAGACUGCC,0.03
8,GGCAGAGCUCAACACAGGGUGGCAAAGUUGCUGUGGCUAGACAGAC,0.02
9,GGCAGGGCUAAACACAGCGUGGCAAAGUGGCUUUGGCUAGACUGCC,0.01
10,GCCAGAGCUCAACACAGCGUGGCAAAGAGGCUGUGGCUACACUGCC,0.03
11,GGCAGAGCUCUACACAGCGUGGCAAAGUGGCUGUGGUUAGACUGUC,0.02
12,GGCAGAGCUCAACACAGCGUGGCAAAGUGCCUGUGGCUAGGCUGCA,0.06
13,GGCAGAGCUCACCAGAGCGUGGCAAAGUGGCUAUGGCUAGAGUGCC,0.01
14,CGCAGAACUGAACACAGCGUGGCAAAGUGUCUGUGGCUAGUCUUCC,0
15,GGAAGACUUCAACACAGCGUGGCAAAGUGGCUGUGGCUUGACUCCC,0.37
16,GGCAGAGCUCAACACAGCGUGGCAAAGUAGGUGUGAAUAGACUGCC,0.13
17,CGCAGAACUCAACACAGAGUGGCAAAGUGGCUGUGGCUAGACUGCC,0.03
18,GGCAGAGCUCAACACAGCGUGGCAAAGUGGUUGUGGCGAGACUGGC,0.05
19,GGCAGAGCUCAACACAGCGUGGCACAGUGGCUGUGACUAGAUUGCC,0.24
20,GGCAGAGCUCAACAGAGCGUGGCAAAGAGGCUCUGGCUAGACUGCC,0.48
21,GGGGGAGCUCUACACUGUGUGGCAAAGUGGCUGUGGCUAGACUACC,0.02
22,GGCAGUGCUCAACACAGCGUGGCAAGGUGGCUGUGUCGAGACUGCC,0.01
23,GCCAGAGCUCAACACAGCGUGGCAAAGUUGGUGUGGCUAGACUGCC,0.02

row,Variant,self-cleavage
1,GGCAGAGCUCAACACAGCGUAGCAUAGUGUCUGUGGCUAGACUGCC,0.98
2,GGCAGAUCUCAACCCACCGUGGAAAAGUGGCUGUGGCUAGACUGCC,0.11
3,GGCAGGGCUCAACAAAGCGUGGCAAAGUGGCUGUGGCUGGACUGCC,0.01
4,GGCAGAGCUCAACACAGGGUGGCAAAGUGGCUUUGUCUAGACUGCC,0.1
5,CGCAGAGCUCAACACAGAUAGGCAAAGUGGCUGUGGCUAGGCUGCC,0.01
6,GGCAGAGCUCAACGUUGCUUGGCAAAGUGGCUGUGGCUAAACUGCC,0.02
7,GGCACAGCUCAACACAGCGUGGCAAAAUGGAUUUGGCUAGACUGCC,0.17
8,GCCAGAGCUCAAUACAGCGUGGCGAAGUGGCUAUGGCUAGACUGCC,0.07
9,GGCAAACCUCAUAACAGCGUGGCAAAGUGGCUGUAGCUAGACUGCC,0.4
10,GGCAGAGCUCAACACAGCGUGGCAAAGUCGCUGUGACUAGACUACC,0.32
11,AGCAGAACUCAACACAGCGGGGCAAAGUGCCUGUGGCUAGACUGCC,1.09
12,GGGGGAGCUCAACACAGCGGGGCAAAGUGGCUCUGGCUAGACUGCC,0.03
13,GGCGGAGCUCAACACGGCGUGGCAAACUGGCUGUGGCUAGAUUGCC,0.02
14,GGCAGAGCUAAACACAGCGUGGCAAAGUGGCUGUAGGUAGACUGCC,0
15,GACAGAGUUCAACACAGCGUGGCAAAGUGGCUGUGGCUCGACUGCC,0.18
16,GGCGGAGCUCAAGACAGCGUGGCAAAGUGGCUUUGGCUAGAUUGCG,0.09
17,GGCAGAGCUAACCACAACGUGGUAAAGUGGGUGUGGUUAGACUGCC,0
18,GGCAGAGCUCAACACAGCGUGGCAAAUGGGGUGCUGCUAGACUGCC,0.05
19,GGAAGGGCUCAACUCAGCGUGGCAAAGUGGCUGUGGCUUGACUGCC,0
20,GGCAGAGCUCGACACAGCGUGGCAAAGUGGGUGUGGCUAGACAGCC,0
21,GGCACAGCUCAGCACAGCGUGGCAAAGAGGUUGUGGCUAGACUGCC,0.02
22,GGCAGACCUCAACACAGCGGGGCAAAGUGGCUGUGGCUAGAAUGCC,0.05
23,CGCAGAGCUCAACACAGCGCGGCAAAGUGGCUGUGGCGAGACUGCC,0.01

row,Variant,self-cleavage
1,UGCAGACCUGGGCACAGCGUGGCAGAGUGGGUGUGGCUAGACUGCC,0.01
2,GGCAGAGCUCAACACAGCGGGGCAAAGUGGCUGGGGCUAGACAGCC,0.02
3,GGCAGGGCUCAACGCAGAGUGGCAAAGUGGCUGCGGCUAGACUGCC,0.03
4,GGCAGAGGUCAACACAGCGUGGCAAAGUGGCUAUGGCUAGACUGCA,0.01
5,GGCAGAGCUCAACACAGCGUGGCAAGGUGACAGUGGCUAGACUGCC,0.12
6,GGGAGAGGUUAACACAACGUGGCAAAGUGGCUGUGGCUAUACUGCC,0.03
7,GGCAGAGCAAAACACAGCGUGGCAAAGUGGCUCUGGCUAGACUGCC,0.07
8,GGCAGAGCUCAACACAACGUGGUAAGGUGGCUGUGGCUAGACUGCC,0.85
9,GGCAGAGCUCAAGACAGCGUGGCAAACUGGCUGUGGUUAGACUGCC,0.06
10,GGCUGAGCUCAACACAGCGUGGCAAAGUGGUUGUGGCUAGAAUGCC,0.05
11,GGCAGAGCUCAACACACCGUGGCAAAGUGGCUGUGGCUAUAAUGUC,0.09
12,UGCAGAGCUCAAGACAGCGUAGCAAAGUUGCUGUGUCUAGACCGCC,0.05
13,GGCAGAGCUCAACCCAGCGUGGCAAAGUGGCUGUGGCUACACUUCC,0.05
14,GGCAGAGCUCAACACACCGCGGCAAAGUGGGUGUGGCUAGACUGCC,0.1
15,GGCAGAGCUCAACACCGCGCGGCAAAGUGGCUGUGGCUAGACUGCG,0.08
16,GGCAGAGCUCAACACAGCCUGACAAAGUGGCUGUAGCUAGAUUGCC,0.08
17,GGCAGAGCUCAACACAGCGUGUCAAAGUGACUGUGGCUUGACUGCC,0.19
18,GGAAGAGCUAAACACAGCGUGACAAAGUGCCUGUGGCUAGACUGCC,0.02
19,GGCCCAGCUCAACACAGCGUGGCAAAGUGGCUGUGGCUACACUGCC,0.03
20,GGCAGAGCUUAACACACCGUGGCAAAGUGGCUGUCGCUAGACUCCC,0.02
21,GGCAGAGCUCAACACAGCGUGGCAAAGUGGCUGUCGCUCGACUGCA,0.07
22,GGCAGAGCUCAACACAGCAUGGCUUAGUGGCUGUGCCUAGACUGCC,0.01
23,GGCAGAGCUCAACACAGCGUGGCAAAUGGGGUGUGUGUAGACUGCC,0.01

row,Variant,self-cleavage
1,GGCAGAGUUAAACACAGCGUGGCAACGUGGCUGUGGCUAGGCUGCC,0.04
2,GGCAGAGCUCAACACAACGUGUCCAAGUGGCUGUGCCUAGACUGCC,0.02
3,GGCAGAACUUAGCACAGCGUGGGAAAGUGGCUGUGGCUAGACUGCC,0
4,GGCAGAGCUGAACACAGCGUCGCAUACUGGCUGUGGCUAGACUGCC,0.02
5,GGCAGAGAUCAACACUGCGCGGCAAACUGGCAGUGGCUAGACUGCC,0.09
6,GGCAGAGCUCCACACAGCGUGGCAAAGUGGCUGUGACUAGGCUGCC,0.04
7,GGCAGAGCUGAACACAGCGUGGCAAAGUACCUAUGGCUAGACUGUC,0.03
8,GGGAGAGCUAAACACAGCGCGGCCAAGUGGCUGUGGCUAGACUGCC,0.01
9,GGCAGCGCUCAACACAGCGUGGCUCAGUGGCUGUGGCUAGACUGCC,0.23
10,GGCAGAGCUCAACACAGCGUGGCAAAGUGGCUGUGGCCAUACUGAC,0.07
11,GGCCGAGCUCAACACAGCGUGGCAAAGUAGCUGUGGCUAGACUGCG,0.03
12,GGCAGAGCUCAACACAGUGUGGCUAAGUAACUUUUGCUAGACUUCC,0.19
13,GGCAGAGCUCAACACAACGUCGCAGAGUGGCUGUGGCUACACUGCC,0.03
14,GGCAGACCAAAAGACAGCGUGACAAAGCGGCUGUGGCUAGACUGCC,0.02
15,GGCAGAACUCAACACAGCGUGUCAAAGUGGCUGUGGCUACACUGCC,0.35
16,GGCAGAGCUCAGGACAGCGUGGCAAAGUGGCUGUGGCUAGUCUGCC,0.08
17,GGCAGGGCUCAACACAGCGUGGCAAAGUGGCCGUGGCUAUACUGCC,0.02
18,GGCAGAGCUCAAGACAUCGUGGCAGAGUGGCCGUGGCUAGACUGCG,0.05
19,GGCAGAACUCAACACAGUGUGACAAAGUAGCAGUGGCUAGACUGCC,0.09
20,GGCAGAGGUCAACACAGCGUGGCAAAGUGGCUUUCGCUAGUCUGCC,0.02
21,GCCAGAGAUCAACACAGCGUGGCAAAGUGGAUGUGGCUAGAUUGCC,0.09
22,CGCAGAGCUCAACACAGCGUAUCAAAGUGGCUGUGGCUAAACUCCC,0.03
23,GGCAGAGCUCAACAUAGCGUUGCAUAGUGGCUGUGGCUAGACUGCC,0.26

row,Variant,self-cleavage
1,UGCGGAGCUCAACUCCGCGUGGCAAAUUGGCUGUGGCUAGUCUGCC,0.02
2,UGCAGAGCUCAACACAGCGUGGAAAAGUGGCUGUGGCUAGACUGAC,0.97
3,GUCAGAGCUCAACACAGCGUGGCAAAGUGGCAGUUGCUAGACUGCC,0.04
4,GGCAGAGCUGAACAUAGCGUGGCAAAGUGGCUGUGGCUAGACUCCC,0.04
5,GGCAGAGCUCAACAUAGCGUUGCAAAGUGGCUGUGGCUAGACGGCC,0.02
6,GGCAGAGGCUCUACCAGCGUGGCAAAGUGGCUGUGGCUAGACUGCC,0.05
7,GCCAGUGCUCAACACAGCGUGGCAAAGUGGCUGUGGCUAGACUCCC,0.66
8,GCCAGUGCCCAAAACAGCGUGGCAAAGUGGCUGUGGCUAGACUGCC,0.09
9,GUCAGAGCUAAACACAGCGUGGGAAAGUGGCUGUGGCUAGACUGCC,0.1
10,GGCAGAGCUCAACACGUCGUGGCAGAGUGGCUGUGGCUAGACUCCC,0.04
11,GUAAGAGCUCAACACAGCGUGGCAAAGUGGCUGUGGCUCGACUGCC,0.23
12,CGCAGAGCUCAUCACAGCGUGUCAAAGUGGCUGAGGCUAGACUGCC,0.02
13,GGCAGAGCUCAACCCAGCGUGGCAAAGUGGCUGUGGCUUGCCUGCC,0.01
14,GGAAGAGCGCAACACAGCGUGGCAAAGUUACCGCGGCUAGACGACC,0.03
15,UGCAGAGCUCAACAAAGCGUGUCCAAGUGGCUGUCACUAGACCGCC,0.02
16,GGCAGAGCUCACCACAGCGUGGCAAAGUGGCUGUGGCUAUACUGAC,0
17,GGCAGAGCUAAAAACAGCGUUGCAAGGUGUCUGUGGCUAGACUGCC,0.03
18,GGCAGAGCUCAACACAGCGUGGCAAAGUGGAUGUGGCUAGACUACU,0.04
19,GUCAGAGCUCAACACAGCGUGGCAAAGUGGCAGUGGCUAGACUGCA,0.03
20,GGCAGAGCUCAACACAGCGUGACAAAGUGGCUAAGGCUAGCUUGCC,0.03
